{"source": "PubChem BioAssay AID488969", "about": "(Vanderbilt High Throughput Screening Facility, 2010)", "note": "Over roughly 110,000 compounds, “z-score” has its median near -0.1; the highest 2% begin near 2. This is one part of the list. Active and inactive are the calls of the source.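 Rule for the calls: active = z-score in the third read window above 3 or below -3; inactive = the rest.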"}
{"target": "Metabotropic glutamate receptor 8 (Rattus norvegicus) (UniProt P70579)", "sequence (P70579 whole entry, looked up)": "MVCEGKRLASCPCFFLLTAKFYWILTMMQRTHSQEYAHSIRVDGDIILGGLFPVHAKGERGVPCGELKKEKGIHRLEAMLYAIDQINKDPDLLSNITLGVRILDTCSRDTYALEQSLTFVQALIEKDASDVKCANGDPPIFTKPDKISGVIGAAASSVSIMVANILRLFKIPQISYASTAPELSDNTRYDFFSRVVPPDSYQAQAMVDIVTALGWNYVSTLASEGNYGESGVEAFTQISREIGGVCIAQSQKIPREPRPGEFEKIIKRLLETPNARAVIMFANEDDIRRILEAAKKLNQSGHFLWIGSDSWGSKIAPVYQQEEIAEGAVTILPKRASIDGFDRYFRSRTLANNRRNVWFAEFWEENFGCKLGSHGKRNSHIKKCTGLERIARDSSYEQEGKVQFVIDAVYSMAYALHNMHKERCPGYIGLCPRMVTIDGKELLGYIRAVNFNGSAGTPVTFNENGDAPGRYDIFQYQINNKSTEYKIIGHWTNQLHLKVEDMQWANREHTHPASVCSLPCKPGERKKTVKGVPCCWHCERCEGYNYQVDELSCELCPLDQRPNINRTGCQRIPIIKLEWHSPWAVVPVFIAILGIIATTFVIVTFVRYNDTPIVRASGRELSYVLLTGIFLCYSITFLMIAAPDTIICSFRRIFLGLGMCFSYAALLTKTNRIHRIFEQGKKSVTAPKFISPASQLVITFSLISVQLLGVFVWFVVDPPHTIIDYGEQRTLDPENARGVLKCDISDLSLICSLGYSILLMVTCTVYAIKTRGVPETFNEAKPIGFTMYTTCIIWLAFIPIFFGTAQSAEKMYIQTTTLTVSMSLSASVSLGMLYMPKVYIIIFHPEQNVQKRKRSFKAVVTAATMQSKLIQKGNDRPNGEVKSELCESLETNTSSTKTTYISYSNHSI", "test": "rat mGluR8 modulators via GIRK flux, primary screen, cell-based, thallium flux, HTS (AID 488969)", "details": "HEK293 rat mGluR8, GIRK (G protein-gated inwardly rectifying potassium channel) thallium flux, FluoZin2; at 10 µM; stronger effect = higher value; submaximal glutamate (EC20) added with thallium"}
{"compound": "CC(=O)N1CCC(N(CCN2CCOCC2)C(=O)Nc2ccc(Cl)c(Cl)c2)CC1", "z-score": -0.368}
{"compound": "CC(NC(=O)COC(=O)c1ccc2c(c1)S(=O)(=O)N=C1CCCCCN12)C12CC3CC(CC(C3)C1)C2", "note": "(configuration not stated)", "z-score": 0.243}
{"compound": "CC1=C(C(=O)Nc2ccccc2C)C(c2cccs2)NC(=S)N1", "note": "(configuration not stated)", "z-score": -0.323}
{"compound": "O=C(Nc1ccccc1)Nc1ccc(Br)c(Cl)c1", "z-score": 0.1}
{"compound": "O=C(CSc1nccc(=O)[nH]1)N1CCc2ccccc2C1", "z-score": -0.246}
{"compound": "CC(C)CN=Cc1c(O)c([N+](=O)[O-])cc2oc3c(c12)CCCC3", "z-score": -1.28}
{"compound": "Cn1c(SCC(=O)c2cc3ccccc3o2)nnc1-c1ccccc1", "z-score": "active: 4.93"}
{"compound": "COc1ccc(NC(=O)CC(c2ccc(F)cc2)c2ccc(OC(C)C)cc2)cc1", "note": "(configuration not stated)", "z-score": -2.06}
{"compound": "CCO/C(C)=N/n1c2nc3ccccc3nc2c2c(=O)n(C3CCCC3)c(C)nc21", "z-score": 1.96}
{"compound": "Cc1ccc(C)c(S(=O)(=O)NCc2cccnc2)c1", "z-score": -0.183}
{"compound": "O=C(O)c1nc(N2CCCCC2)ncc1Cl", "z-score": -0.206}
{"compound": "Cc1ccc(C)c(C(=O)CCC(=O)Nc2cccnc2)c1", "z-score": -0.00121}
{"compound": "CCCn1c(C)cc(C(=O)CSc2nc3nc(C)cc(C)n3n2)c1C", "z-score": -0.661}
{"compound": "CC(Sc1nnc(-c2ccc(Cl)cc2Cl)n1Cc1ccccc1)C(=O)Nc1nccs1", "note": "(configuration not stated)", "z-score": -1.54}
{"compound": "N#CCSc1nc2[nH]ncc2c(=O)n1-c1ccccc1Br", "z-score": 0.0767}
{"compound": "Cc1cc2ccccc2n1CCNC(=O)COc1ccccc1", "z-score": -0.407}
{"compound": "S=C(Nc1ccc(Cl)cc1Cl)N1CCOCC1", "z-score": -0.325}
{"compound": "CCc1ccccc1N(CC)C(=O)c1cn(CC)c(=O)c2cc(OC)c(OC)cc12", "z-score": -0.842}
{"compound": "CC1CCc2nn(CC(=O)NCCN3CCCCC3C)cc2C1", "note": "(configuration not stated)", "z-score": 0.216}
{"compound": "O=C(CSCc1ccccc1)N1CCN(Cc2ccc3c(c2)OCO3)CC1", "z-score": -0.236}
{"compound": "CCN(CC)CCN1C(=O)C(=O)/C(=C(/O)c2c(C)[nH]c(C(=O)OC)c2C)C1c1cccs1", "note": "(configuration not stated)", "z-score": -0.36}
{"compound": "O=C(C1CCCN(Cc2ccccc2C(F)(F)F)C1)N1CCCCC1", "note": "(configuration not stated)", "z-score": -1.27}
{"compound": "COc1ccc(NC(=O)CC2SC(=Nc3ccccc3)NC2=O)c(OC)c1", "note": "(configuration not stated)", "z-score": 0.857}
{"compound": "COc1cccc(Cn2c(-c3nonc3N)nc3ccccc32)c1", "z-score": 0.0572}
{"compound": "O=C(c1ccc(Br)o1)N(c1ccccn1)C1CCCCC1", "z-score": -0.175}
{"compound": "COc1ccc2c(c1)-c1c(ssc1=S)C(C)(C)N2S(=O)(=O)c1ccc(C)cc1", "z-score": -0.0351}
{"compound": "O=c1[nH]c(Nc2ccc(F)cc2)cc2ccccc12", "z-score": -0.11}
{"compound": "COC(=O)C1=C(C)NC(=O)C1(NC(=O)CN1CCCC1=O)C(F)(F)F", "note": "(configuration not stated)", "z-score": 0.447}
{"compound": "COC(=O)C1=C(N)c2c(F)cccc2C1(C#N)c1ccccc1", "note": "(configuration not stated)", "z-score": -0.579}
{"compound": "CNC(=O)c1ncnnc1N(C)C(=O)NCc1ccccc1", "z-score": 0.334}
{"compound": "Cc1c(Nc2nc3ccccc3nc2NS(=O)(=O)c2ccccc2)c(=O)n(-c2ccccc2)n1C", "z-score": -0.716}
{"compound": "COc1ccc(CNC(=O)C(c2ccncc2)N(C(=O)Cc2cccs2)c2cccc(C)c2)cc1", "note": "(configuration not stated)", "z-score": -0.197}
{"compound": "Cc1cc(C)cc(NC(=O)/C=C/c2ccc([N+](=O)[O-])s2)c1", "z-score": 0.74}
{"compound": "O=C1CC(c2ccc(Br)cc2)NC(c2ccc(Br)cc2)C1c1ccccc1", "note": "(configuration not stated)", "z-score": -0.141}
{"compound": "COCCCNC(=O)C1CCN(c2nc(C)cc(C)n2)CC1", "z-score": 0.615}
{"compound": "N#CCCn1c(SCC(=O)NCCc2ccc(F)cc2)nc2ccccc21", "z-score": 0.367}
{"compound": "CN1CCN(CC(=O)Nc2c(C(=O)C3CC3)oc3ccccc23)CC1", "z-score": -0.346}
{"compound": "COc1ccc(N2CCN(C(=O)c3cn(C4CCCC4)c(=O)c4c3c3ccccc3n4C)CC2)cc1", "z-score": -0.454}
{"compound": "Cc1ccc2[nH]cc(CCNC(=O)CN3C(=O)c4ccccc4C3=O)c2c1", "z-score": -0.118}
{"compound": "Cc1ccc(NC(=S)NCc2ccc3c(c2)OCO3)cc1", "z-score": 0.205}
{"compound": "COC(=O)CSc1nc(SCc2ccc(C)cc2)nc2c1CCCC2", "z-score": -0.536}
{"compound": "Cc1ccc(C)c(S(=O)(=O)NC(CC(C)C)C(=O)O)c1", "note": "(configuration not stated)", "z-score": 0.031}
{"compound": "CCc1ccc(NC(=O)COc2ccc(/C=C(/C#N)c3nc4ccccc4[nH]3)cc2OC)cc1", "z-score": -0.248}
{"compound": "COc1cc(NC(=O)CSc2ccccc2)c(C(=O)O)cc1OC", "z-score": -0.309}
{"compound": "Cc1ccc(C(=O)NC(=S)NCC2CCCO2)cc1", "note": "(configuration not stated)", "z-score": -0.155}
{"compound": "O=C(N=C1SCC(=O)N1c1ccccc1)c1ccco1", "z-score": 0.173}
{"compound": "COCC(=O)N(c1ccc(C(C)C)cc1)C1C=CS(=O)(=O)C1", "note": "(configuration not stated)", "z-score": -0.253}
{"compound": "O=C(Nc1nccs1)c1nc(-c2ccccc2)n(-c2ccccc2)n1", "z-score": 0.663}
{"compound": "Fc1ccc(CN2CCN3CCCC3C2C2CCCCC2)cc1F", "note": "(configuration not stated)", "z-score": 0.36}
{"compound": "COc1ccc(NC(=O)Nc2cccc3cccnc23)cc1", "z-score": -0.361}
{"compound": "CCOc1cccc2sc(Nc3nc4ccc(NC(C)=O)cc4s3)nc12", "z-score": -0.153}
{"compound": "O=C(Nn1cnnc1)C1CCCN1S(=O)(=O)c1ccc(F)cc1", "note": "(configuration not stated)", "z-score": 1.78}
{"compound": "COc1ccc(NC(=O)COC(=O)C(CC(C)C)N2C(=O)C3CC=CCC3C2=O)cc1Cl", "note": "(configuration not stated)", "z-score": -0.163}
{"compound": "COc1ccc(C(=O)N/N=C/c2cc3ccccc3[nH]c2=S)cc1", "z-score": -0.277}
{"compound": "CCOc1cc(/C=C2/C(=O)ON=C2C)ccc1OCc1ccccc1F", "z-score": 0.0383}
{"compound": "O=C(CSc1nc2ccccc2o1)N1CCN(c2ccc(Cl)cc2)CC1", "z-score": -0.237}
{"compound": "CC1=CC(C)(C)NC(=S)N1c1ccc(C)cc1", "z-score": 0.241}
{"compound": "O=C(NN=C1CCCC1)NC1CCCCC1", "z-score": -0.219}
{"compound": "Cc1ccc(NC(=O)C(=O)NCCOc2ccccc2Cl)cc1", "z-score": -0.128}
{"compound": "O=C1Nc2cc(Cl)c(Cl)cc2N(O)N1c1ccc(Cl)c(Cl)c1", "z-score": -0.447}
{"compound": "CNc1nc(Oc2ccc(=O)n(C)n2)nc(N2CCOCC2)n1", "z-score": -0.336}
{"compound": "Cc1ccccc1NC(=S)NNC(=O)c1csc2c1CCC(C)C2", "note": "(configuration not stated)", "z-score": "active: 8.84"}
{"compound": "O=C1CSCC(=O)N1c1ccccc1", "z-score": -0.0628}
{"compound": "COc1cccc(NC(=O)CC(C)=O)c1", "z-score": 0.0348}
{"compound": "COc1ccc(N2CCN(C(=O)CSc3nnc(Cn4nnc5ccccc54)n3C)CC2)cc1", "z-score": 0.0499}
{"compound": "CCSc1ccccc1C(=O)NCc1ccc2c(c1)OCO2", "z-score": -0.45}
{"compound": "CCCOP(=O)(c1ccccc1)c1ccccc1", "z-score": 0.167}
{"compound": "COCCNC(=O)CCCCCn1c(=S)[nH]c2ccccc2c1=O", "z-score": 1.77}
{"compound": "Cc1nc(-c2ccccc2)sc1-c1nc(-c2cccnc2)ncc1S(=O)(=O)c1ccccc1", "z-score": 0.0175}
{"compound": "O=Cc1ccc2noc(-c3ccc(Cl)cc3)c2c1", "z-score": 0.119}
{"compound": "COC(=O)c1ccc(NC(=O)CSCc2ccccc2)cc1", "z-score": -0.454}
{"compound": "O=C(/C=C/c1ccc(Cl)cc1)Nc1ccccc1N1CCOCC1", "z-score": -0.282}
